Assay results published in the RNAGym collection of RNA variant scans (doi:10.1093/nar/gkz1192).
Read counts are not given, so values of variants with three or more changes are uncertain.

B1: CPEB3 Ribozyme (parent)
chain: UAACAGGGGGCCACAGCAGAAGCGUUCACGUCGCAGCCCCUGUCAGAUUCUGGUGAAUCUGCGAAUUCUGCUGUAUAUCUC

Variants of: B1
Assay: self-cleavage, relative activity (ratio to wild type); higher = more cleavage; in vitro, sequencing
Outline: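 Relative activity was defined as the cleaved/total read fraction for a variant divided by the same fraction for the unmutated ribozyme. CPEB3 self-cleaving ribozyme libraries were made by rounds of error-prone PCR, barcoded, and transcribed in vitro with T7 RNA polymerase for 5 hours at 37°C, and cleavage ran through transcription plus a 15 min DNase I step before EDTA. Illumina sequencing of template-switched reverse transcripts gave the reads, and DNA sequencing mapped the barcodes. Averages come from three batches, using variants with at least 5 reads.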

| Variant | self-cleavage |
| --- | --- |
| UAACAGGGGGCCACAGCAGAAGCGUUCACGCCGCAGCCCCUGUCAUAUUCUGGUGAAUCUGUGAAUUCUGCUGUAUAUCUC [U31C G46U C62U] | 0.26 |
| UAACAGGGGGCCACAGCAGAAGCGUUCACGCCGCAGCCCCUGUCAGAUUCUAGUGAAUCCGCGAAUUCUGCUGUAUAUCCC [U31C G52A U60C U80C] | 0.7 |
| UAACAGGGGGCCACAGCAGAAGCGUUCACGCCGCAGCCCCUGUCAGAUUCUAGUGAAUCUGCGAAUUCUGCAGUAUAUCUC [U31C G52A U72A] | 0.59 |
| UAACAGGGGGCCACAGCAGAAGCGUUCACGCCGCAGCCCCUGUCAGAUUCUAGUGAAUCUGCGAAUUCUGCCGUAUAUCCC [U31C G52A U72C U80C] | 1.2 |
| UAACAGGGGGCCACAGCAGAAGCGUUCACGCCGCAGCCCCUGUCAGAUUCUCGCGAAUCUGCGAUUUCUGCUGUAUAUCUC [U31C G52C U54C A65U] | 0.19 |
| UAACAGGGGGCCACAGCAGAAGCGUUCACGCCGCAGCCCCUGUCAGAUUCUUGUGAAUCUGCGGAUACUGCUGUAUAUCUC [U31C G52U A64G U67A] | 0.17 |
| UAACAGGGGGCCACAGCAGAAGCGUUCACGCCGCAGCCCCUGUCAGAUUCUGAUAAAUCUGCGAAUUCUGCUGUAUAUCUC [U31C G53A G55A] | 0.56 |
| UAACAGGGGGCCACAGCAGAAGCGUUCACGCCGCAGCCCCUGUCAGAUUCUGCUGAAUCUGCGAAUUCUGCUGUCCAUCUC [U31C G53C A75C U76C] | 1.04 |
| UAACAGGGGGCCACAGCAGAAGCGUUCACGCCGCAGCCCCUGUCAGAUUCUGUUGAAUCUGCGAGUUCUGCUGUAUAUCUC [U31C G53U A65G] | 0.2 |
| UAACAGGGGGCCACAGCAGAAGCGUUCACGCCGCAGCCCCUGUCAGAUUCUGGUAAAUCUGCGAGUUCUGCUGUAUAUCUC [U31C G55A A65G] | 0.2 |
| UAACAGGGGGCCACAGCAGAAGCGUUCACGCCGCAGCCCCUGUCAGAUUCUGGUCGAUCUGCGGAUUCUGCUGUAUAUCUC [U31C G55C A56G A64G] | 0.22 |
| UAACAGGGGGCCACAGCAGAAGCGUUCACGCCGCAGCCCCUGUCAGAUUCUGGUGAAUCUCCGAAUUCUGCUGUAUACCUC [U31C G61C U78C] | 0.19 |
| UAACAGGGGGCCACAGCAGAAGCGUUCACGCCGCAGCCCCUGUCAGAUUCUGGUGAAUCUGCAAAUUCUGCUGUACAUCUC [U31C G63A U76C] | 0.56 |
| UAACAGGGGGCCACAGCAGAAGCGUUCACGCCGCAGCCCCAGUCGGAUUCUGGUGAAUCUGCGAAUUCUGCUGUAUAUCUC [U31C U41A A45G] | 0.16 |
| UAACAGGGGGCCACAGCAGAAGCGUUCACGCCGCAGCCCCAGUCUGAUUCUGGUGAAUCUGCGAAUUCUGCUGUAUACCUC [U31C U41A A45U U78C] | 0.13 |
| UAACAGGGGGCCACAGCAGAAGCGUUCACGCCGCAGCCCCAGUCAGAUUCUGGUGUAACUGCGAAGUCCGCUGUAUACCUC [U31C U41A A56U U58A U66G U69C U78C] | 0.06 |
| UAACAGGGGGCCACAGCAGAAGCGUUCACGCCGCAGCCCCAGUCAGAUUCUGGUGAGUCCGCGAAUUCUGCUGUAUAUCUC [U31C U41A A57G U60C] | 0.15 |

| Variant | self-cleavage |
| --- | --- |
| UAACAGGGGGCCACAGCAGAAGCGUUCACGCCGCAGCCCCAGUCAGAUUCUGGUGAAUCUGCGGAUUCUGCUGUAUAUCUC [U31C U41A A64G] | 0.29 |
| UAACAGGGGGCCACAGCAGAAGCGUUCACGCCGCAGCCCCAGUCAGAUUCUGGUGAAUCUGCAAAUUCAGCUGUAUAUCUC [U31C U41A G63A U69A] | 0.09 |
| UAACAGGGGGCCACAGCAGAAGCGUUCACGCCGCAGCCCCAGUCAGAAUCUGGUGAAUCUGCGAAUUCUGCUGUAUAUCUC [U31C U41A U48A] | 0.15 |
| UAACAGGGGGCCACAGCAGAAGCGUUCACGCCGCAGCCCCAGUCAGAUUCUGGUGAAUCCGCGGAUUCUGCUGUAUAUCUC [U31C U41A U60C A64G] | 0.15 |
| UAACAGGGGGCCACAGCAGAAGCGUUCACGCCGCAGCCCCAGUCAGAUUCUGGUGAAUCUGCGAAUUCUGCCGUAUACCUC [U31C U41A U72C U78C] | 0.15 |
| UAACAGGGGGCCACAGCAGAAGCGUUCACGCCGCAGCCCCCGUCGGAUUCUGGUGAAUCUGCGAAUUCUGCUGUAUAUCUC [U31C U41C A45G] | 0.4 |
| UAACAGGGGGCCACAGCAGAAGCGUUCACGCCGCAGCCCCCGUCUGAUUCUGGUGAAUCUGCGAAUUCUGCUGUAUAUCUC [U31C U41C A45U] | 0.33 |
| UAACAGGGGGCCACAGCAGAAGCGUUCACGCCGCAGCCCCCGUCUGGUUCUGGUGAAUCUGCGUAUUCUGCUGCGUAUCUC [U31C U41C A45U A47G A64U U74C A75G] | 0.07 |
| UAACAGGGGGCCACAGCAGAAGCGUUCACGCCGCAGCCCCCGUCUGAUUCUGGUGAAUCUGCGAAUUCUGCCCUAUAACUC [U31C U41C A45U U72C G73C U78A] | 0.39 |
| UAACAGGGGGCCACAGCAGAAGCGUUCACGCCGCAGCCCCCGUCAGAUUCUGGUGAGACCGCGAAUUCUGCUGUAUAUCUA [U31C U41C A57G U58A U60C C81A] | 0.09 |
| UAACAGGGGGCCACAGCAGAAGCGUUCACGCCGCAGCCCCCGUCAGAUUCUGGUGAAUCUGCGAAUUCUGCUGUAUUUCUC [U31C U41C A77U] | 0.88 |
| UAACAGGGGGCCACAGCAGAAGCGUUCACGCCGCAGCCCCCGCCGGAUUCUGGUGAAUCUGCGAAUUCUGCUGUAUUUCUC [U31C U41C U43C A45G A77U] | 0 |
| UAACAGGGGGCCACAGCAGAAGCGUUCACGCCGCAGCCCCCGUCAGAUUCAGGCGAAUCUGCGAAUUCUGCUGUAUAUCUC [U31C U41C U51A U54C] | 0.75 |
| UAACAGGGGGCCACAGCAGAAGCGUUCACGCCGCAGCCCCCGUCAGAUUCAGGUGAACCUGCGAAUUCUGCUGUAUAUCUC [U31C U41C U51A U58C] | 0.46 |
| UAACAGGGGGCCACAGCAGAAGCGUUCACGCCGCAGCCCCCGUCAGAUUCCGGUAAAUCUGCGAAUUCUGCUGUAUAUCAC [U31C U41C U51C G55A U80A] | 0.66 |
| UAACAGGGGGCCACAGCAGAAGCGUUCACGCCGCAGCCCCCGUCAGAUUCCGGUGAAUCUGCGAAUUCCGCUGUAUAUCUC [U31C U41C U51C U69C] | 0.43 |
| UAACAGGGGGCCACAGCAGAAGCGUUCACGCCGCAGCCCCCGUCAGAUUCUGGUGAAUCUGCGAAUUCUGCAGUAUAUCUC [U31C U41C U72A] | 0.43 |
